# Data published in the supplement of paper PMC7826260.
# Some of the results follow. One pool of 16,384 single-stranded DNAs met each Rep nickase domain in vitro (1 h at 37 °C, 3 µM enzyme); the outer parts of the 90-letter strands are left off. Values are log2 of uncut reads against the no-enzyme pool; strong cutting gives strongly negative numbers. There is no active / inactive call. The scaling is to total reads, so uncut sequences can rise above 0 when many others are cut.
# Key:
# Assay in all cases: uncleaved DNA left, log2 of reads against the no-enzyme library (log2 ratio); higher = less cleavage (more negative = more Rep cleavage of the k-mer); sequences stand for … in CTCGTCCG…ACCGGAGA
# [1] = system: T1, Rep nickase domain of Muscovy duck circovirus
# T1 sequence (residues 1-111, tag not shown): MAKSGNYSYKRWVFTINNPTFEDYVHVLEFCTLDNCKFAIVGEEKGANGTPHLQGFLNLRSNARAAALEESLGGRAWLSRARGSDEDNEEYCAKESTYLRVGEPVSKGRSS
# Protocol: (§1)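 A pool of 90-nt single-stranded DNAs with seven random bases just before the constant AC of the nick site (name = the seven bases) was cut by 3 µM recombinant His6-SUMO-tagged Rep nickase domain (300 nM DNA, 50 mM HEPES pH 8.0, 50 mM NaCl, 1 mM MnCl2, 1 h, 37 °C, three replicates). Uncut DNA was amplified and sequenced.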
# [2] = system: T2, Rep nickase domain of banana bunchy top virus
# T2 sequence (residues 1-94, tag not shown): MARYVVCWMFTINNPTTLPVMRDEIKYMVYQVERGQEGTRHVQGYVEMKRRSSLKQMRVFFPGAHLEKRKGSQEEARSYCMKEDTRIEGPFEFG
# Protocol: as §1
# [3] = system: T3, Rep nickase domain of cabbage leaf curl virus
# T3 sequence (residues 1-116, tag not shown): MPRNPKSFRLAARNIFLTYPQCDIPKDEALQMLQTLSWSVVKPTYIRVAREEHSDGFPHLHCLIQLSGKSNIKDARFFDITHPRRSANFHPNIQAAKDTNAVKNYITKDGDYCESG
# Protocol: as §1
# [4] = system: T4, Rep nickase domain of chickpea chlorotic dwarf virus
# T4 sequence (residues 1-124, tag not shown): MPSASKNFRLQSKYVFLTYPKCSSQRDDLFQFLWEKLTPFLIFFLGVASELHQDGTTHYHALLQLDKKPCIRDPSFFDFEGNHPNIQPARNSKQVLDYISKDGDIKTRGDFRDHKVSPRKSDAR
# Protocol: as §1
# [5] = system: T5, Rep nickase domain of faba bean necrotic yellows virus
# T5 sequence (residues 1-98, tag not shown): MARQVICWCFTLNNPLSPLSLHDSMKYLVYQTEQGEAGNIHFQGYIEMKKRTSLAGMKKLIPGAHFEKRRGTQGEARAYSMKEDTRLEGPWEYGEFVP
# Protocol: as §1
# [6] = system: T6, Rep nickase domain of maize striate mosaic virus
# T6 sequence (residues 1-117, tag not shown): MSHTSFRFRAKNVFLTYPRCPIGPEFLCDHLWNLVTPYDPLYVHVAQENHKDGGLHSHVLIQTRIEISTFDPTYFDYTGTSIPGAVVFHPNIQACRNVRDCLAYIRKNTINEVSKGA
# Protocol: as §1
# [7] = system: T7, Rep nickase domain of porcine circovirus 2
# T7 sequence (residues 2-116, tag not shown): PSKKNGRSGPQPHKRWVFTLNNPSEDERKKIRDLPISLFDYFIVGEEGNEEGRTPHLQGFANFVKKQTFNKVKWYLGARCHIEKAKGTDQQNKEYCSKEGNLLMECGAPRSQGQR
# Protocol: as §1
# [8] = system: T8, Rep nickase domain of tomato golden mosaic virus
# T8 sequence (residues 1-124, tag not shown): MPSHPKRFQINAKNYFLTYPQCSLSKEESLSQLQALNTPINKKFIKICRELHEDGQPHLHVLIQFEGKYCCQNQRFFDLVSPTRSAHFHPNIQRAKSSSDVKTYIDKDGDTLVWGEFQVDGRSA
# Protocol: as §1
# [9] = system: T9, Rep nickase domain of tomato yellow leaf curl virus
# T9 sequence (residues 1-136, tag not shown): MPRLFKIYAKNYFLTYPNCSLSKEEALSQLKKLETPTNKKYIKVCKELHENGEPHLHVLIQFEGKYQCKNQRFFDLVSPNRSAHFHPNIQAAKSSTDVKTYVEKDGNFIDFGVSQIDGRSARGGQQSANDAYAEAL
# Protocol: as §1
# [10] = system: T10, Rep nickase domain of wheat dwarf virus
# T10 sequence (residues 1-137, tag not shown): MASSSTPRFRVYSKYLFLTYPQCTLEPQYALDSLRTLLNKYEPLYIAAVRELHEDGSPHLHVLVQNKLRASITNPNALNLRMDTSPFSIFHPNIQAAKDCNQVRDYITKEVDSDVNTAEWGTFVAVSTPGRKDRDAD
# Protocol: as §1
Sequence,uncleaved DNA left (log2) [1],uncleaved DNA left (log2) [2],uncleaved DNA left (log2) [3],uncleaved DNA left (log2) [4],uncleaved DNA left (log2) [5],uncleaved DNA left (log2) [6],uncleaved DNA left (log2) [7],uncleaved DNA left (log2) [8],uncleaved DNA left (log2) [9],uncleaved DNA left (log2) [10]
CGGTATC,0.192,0.152,0.264,0.704,0.0195,0.719,0.0955,0.118,0.11,0.0708
TTTATGG,0.0074,0.0316,0.506,1.33,0.111,1.68,0.181,0.192,-0.0696,0.0634
GTCGTCG,0.0797,0.0389,0.00421,0.119,-0.067,-0.121,0.0906,0.0378,0.0504,-0.0788
AACGTTC,0.103,0.139,-0.0547,-1.93,0.249,-0.557,0.14,-0.00309,0.152,0.132
AACTTTC,-0.118,-0.0122,0.00423,-0.737,0.16,-0.805,-1.72,-0.0345,-0.0548,0.0485
ACCGGCG,0.065,0.0938,0.233,1.64,0.08,1.66,0.189,0.0563,0.0845,-0.00228
GGACTTT,-0.0953,-0.0907,0.737,1.76,-0.124,2.06,-0.0112,-0.133,-0.0654,0.0466
GGTACAG,0.0967,0.121,0.837,2.03,0.136,2.21,0.221,0.0974,0.0483,0.179
AAGCTCC,-0.0736,-0.017,0.0791,0.0185,-0.0303,1.15,-0.0303,0.00134,-0.0375,-0.0655
GATGGCA,0.0353,-0.087,0.23,0.688,-0.0183,0.401,0.107,0.0323,0.0241,0.0658
GTGTCAC,-0.0496,-0.00195,0.195,0.958,-0.0706,1.8,-0.0448,0.0637,-0.0924,0.142
TGGCGGA,-0.135,-0.199,-0.333,-0.242,-0.102,-0.586,-0.0277,-0.119,-0.204,-0.245
CCAGCGC,0.104,-0.00452,-0.654,-0.355,0.0964,-0.827,0.217,0.0263,-0.0957,-0.127
AACTGAA,0.0251,0.165,0.144,0.522,0.126,0.817,-1.87,0.131,0.0379,0.178
TGCTCCG,0.00438,-0.119,-0.785,-0.517,-0.0272,-0.966,0.0583,-0.115,-0.0621,-0.207
ATAGGAA,0.0516,0.0648,0.332,1.48,-0.00302,1.57,0.287,0.105,-0.121,0.179
TCATATA,-0.0515,-0.123,-0.0227,-1.76,-0.0682,-0.614,-0.218,-0.0207,-0.0459,-0.0855
GCCCTCT,0.00155,0.146,0.151,-0.698,0.0406,0.157,-0.0208,0.0683,0.0683,0.0516
TGGCGGC,0.0583,-0.0232,0.00779,0.114,0.00825,-0.0988,0.0634,0.0472,0.0676,-0.116
TAGAGCG,0.0165,-0.00144,-0.698,-0.593,0.00409,-1.13,0.0155,-0.0327,-0.0166,-0.165
GCTCTTA,-0.0776,-0.0132,0.144,-0.105,0.0851,0.536,-0.133,0.138,0.0404,0.0508

Sequence,uncleaved DNA left (log2) [1],uncleaved DNA left (log2) [2],uncleaved DNA left (log2) [3],uncleaved DNA left (log2) [4],uncleaved DNA left (log2) [5],uncleaved DNA left (log2) [6],uncleaved DNA left (log2) [7],uncleaved DNA left (log2) [8],uncleaved DNA left (log2) [9],uncleaved DNA left (log2) [10]
CCGGAGA,0.00377,-0.0466,0.0711,0.474,-0.124,0.326,-0.0985,-0.0318,-0.0601,-0.141
GCTGGGG,0.119,0.00973,0.426,0.696,-0.0459,0.732,0.221,0.0642,-0.0147,0.0661
TATAATT,-2.51,-3.2,-2.64,-3.16,0.14,-0.475,-3.43,-0.21,-0.0766,-0.466
ATACCAT,0.0261,-0.0434,0.0777,-0.587,0.00545,-0.0919,-0.135,-0.0357,-0.0236,0.0358
GCATCGC,0.0455,0.0705,-0.432,-0.381,0.129,-0.75,0.263,0.117,0.172,-0.0435
GGATGGC,0.0688,0.107,0.674,1.33,0.122,1.42,0.254,0.128,0.04,0.108
GTAACCC,-0.114,0.00495,0.205,0.491,0.00783,1.31,-0.326,0.0235,-0.00432,-0.0521
GCCTGCA,0.0622,0.0314,-0.267,-0.143,0.01,-0.646,0.0506,0.0962,-0.0631,-0.0285
TCTACCT,0.0179,0.214,-0.0179,-2.58,0.0604,-0.116,-0.965,0.0571,0.0615,0.014
TTGGAAG,-0.106,-0.0615,-0.777,-0.587,0.0277,-0.991,0.0471,-0.0806,-0.0382,-0.151
AAGAGTA,0.063,0.00306,0.0564,-0.134,0.127,0.685,-1.1,0.124,-0.0916,0.0505
TTCCGCA,0.0331,-0.0349,-0.032,-0.596,-0.00166,-0.768,-0.0896,-0.0796,0.0221,-0.0505
TGAAACG,-0.0343,-0.021,-0.425,-0.684,-0.0864,-1.11,0.097,0.0459,-0.107,-0.0569
AGCCCGA,-0.102,0.0158,0.459,1.06,0.055,0.707,0.0752,-0.0693,-0.119,0.0619
TAACTTT,-0.2,-0.0481,-3.89,-3.5,0.0751,-2.82,-1.81,-3.08,0.101,-3.76
TTGTTGG,0.00935,-0.169,-0.223,-0.179,-0.0565,-0.73,-0.0333,-0.144,-0.191,-0.156
GCAAGCT,-0.0857,0.134,0.242,0.883,0.0599,0.787,0.1,0.0577,0.0193,0.0394
CACCCGA,-0.129,-0.15,-0.423,-0.882,-0.15,-1.1,-0.162,-0.17,-0.0614,-0.16
CCCATGT,-0.00685,0.0425,-0.149,-0.407,-0.0602,-1,-0.0364,-0.164,-0.122,-0.0707
TGGCCGG,0.0739,0.035,0.488,1.21,0.125,1.61,0.134,0.111,0.092,0.0888
GAATATG,0.177,0.104,-0.237,-0.255,0.0754,-0.752,0.115,0.0619,0.132,0.0547

Sequence,uncleaved DNA left (log2) [1],uncleaved DNA left (log2) [2],uncleaved DNA left (log2) [3],uncleaved DNA left (log2) [4],uncleaved DNA left (log2) [5],uncleaved DNA left (log2) [6],uncleaved DNA left (log2) [7],uncleaved DNA left (log2) [8],uncleaved DNA left (log2) [9],uncleaved DNA left (log2) [10]
CGGCTAA,0.103,0.0887,0.0301,0.461,0.0889,0.805,0.0625,0.14,0.0097,0.0874
GCCGCAG,-0.0669,0.0103,-0.214,-0.263,0.0215,-0.504,0.316,0.14,0.054,-0.0811
GGCCATG,0.0822,0.0624,0.422,1.16,0.0191,1.49,0.127,0.0909,0.049,0.167
AATGATC,-0.117,-0.248,0.0132,0.438,-0.112,0.645,0.0142,-0.0831,-0.0073,-0.024
ACAGAAA,0.0483,0.0814,-0.0407,0.044,0.149,-0.6,0.212,0.201,0.0315,0.0536
TATCGGG,-0.0204,-0.0274,-0.0615,-0.00914,-0.101,-0.502,0.0926,-0.0344,-0.0788,-0.218
GTATGCA,-0.0777,0.0228,0.055,0.388,0.0442,-0.201,0.0179,0.0394,0.054,-0.0319
TGATTAA,0.162,0.0984,0.113,-0.0067,0.214,-0.000864,0.0403,0.0107,0.0962,0.103
TCCACAA,-0.0323,0.034,0.168,-0.179,-0.0296,-0.269,0.0614,-0.0488,-0.00252,0.0849
CGTGTCT,-0.0496,-0.127,-0.0311,-0.861,-0.0634,-0.298,-0.389,-0.154,-0.0539,-0.141
CATTTTC,-0.76,-0.663,-0.116,-0.544,0.0739,-1.03,-0.61,0.0775,-0.00436,-0.0207
TCGTAGT,-1.14,-0.0582,-0.131,-0.569,-0.521,-0.525,-3.62,-0.12,0.0945,-0.141
GCCACAC,-0.0449,0.0407,0.22,0.412,-0.151,0.135,0.0687,-0.0138,0.0191,0.0854
TCTTGAG,0.133,0.0356,-0.657,-0.276,0.0923,-1.14,0.195,-0.0352,0.0267,-0.0959
CAGGGCA,0.0863,0.0161,0.00461,0.194,0.0121,-0.0539,-0.0158,-0.0425,0.0542,-0.0116
TCCAGGG,-0.0525,-0.0832,0.0118,0.368,-0.114,-0.369,0.0602,-0.0907,-0.0883,-0.0731
TGTTCAT,0.00385,0.0496,0.302,0.438,-0.0171,0.991,-0.0991,-0.0873,0.18,0.156
CCGGTTG,-0.0744,-0.152,-0.165,0.175,0.042,0.286,0.0801,-0.0753,-0.297,-0.11
TCTACGT,0.0668,-0.0322,0.379,-0.286,0.0325,0.414,0.00988,-0.00878,-0.0582,0.0523
TAACTCG,-0.112,-0.129,-0.986,-1.53,-0.0166,-1.35,-0.004,-0.124,-0.135,-0.166
